Experimental data reported in PubChem BioAssay AID488969 (Vanderbilt High Throughput Screening Facility, 2010).
The full ranking holds about 110,000 compounds; the median of “z-score” is about -0.1, and the highest 2% start at about 2. Some of the results follow. Activity calls are given as the source filed them.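 How the source made its calls: active means z-score in the third read window above 3 or below -3; inactive means the rest.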

molecular target: Metabotropic glutamate receptor 8 (Rattus norvegicus) (UniProt P70579); assay: mGluR8 Gi/Go-coupled signaling modulation – cell-based, rat, thallium flux, HTS, primary screen (AID 488969); conditions: HEK293 rat mGluR8, GIRK (G protein-gated inwardly rectifying potassium channel) thallium flux, FluoZin2; at 10 µM; stronger effect = higher value; submaximal glutamate (EC20) added with thallium
Chain of UniProt P70579 (P70579 whole entry, looked up): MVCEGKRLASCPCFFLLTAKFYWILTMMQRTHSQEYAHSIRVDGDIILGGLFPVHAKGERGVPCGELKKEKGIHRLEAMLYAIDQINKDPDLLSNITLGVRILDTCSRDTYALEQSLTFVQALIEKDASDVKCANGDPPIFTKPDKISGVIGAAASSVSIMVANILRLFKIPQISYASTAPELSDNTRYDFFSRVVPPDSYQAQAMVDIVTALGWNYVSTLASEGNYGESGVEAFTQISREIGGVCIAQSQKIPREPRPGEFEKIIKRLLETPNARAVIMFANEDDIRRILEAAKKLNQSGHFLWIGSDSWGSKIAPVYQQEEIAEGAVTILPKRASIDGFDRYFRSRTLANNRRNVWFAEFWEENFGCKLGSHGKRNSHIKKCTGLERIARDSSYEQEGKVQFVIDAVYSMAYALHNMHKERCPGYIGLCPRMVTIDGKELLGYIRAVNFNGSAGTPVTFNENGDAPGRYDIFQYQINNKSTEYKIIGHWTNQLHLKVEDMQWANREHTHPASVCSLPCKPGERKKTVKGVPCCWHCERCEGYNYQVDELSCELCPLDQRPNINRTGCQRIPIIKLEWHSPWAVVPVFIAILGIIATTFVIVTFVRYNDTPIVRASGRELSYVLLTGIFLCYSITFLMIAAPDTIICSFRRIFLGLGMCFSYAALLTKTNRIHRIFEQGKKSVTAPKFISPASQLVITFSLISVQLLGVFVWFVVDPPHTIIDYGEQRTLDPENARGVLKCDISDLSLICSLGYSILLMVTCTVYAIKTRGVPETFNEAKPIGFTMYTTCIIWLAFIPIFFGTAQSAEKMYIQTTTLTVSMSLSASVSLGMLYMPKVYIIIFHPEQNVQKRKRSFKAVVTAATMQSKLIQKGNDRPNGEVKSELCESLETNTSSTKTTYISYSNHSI

SMILES	z-score
Cc1cccc(-n2c(SCC(=O)NC3CCCC3)nnc2-c2ccoc2C)c1	-0.591
Cc1ccc(C(=O)C[n+]2cccc3ccccc32)cc1	-0.236
COc1ccc(S(=O)(=O)Nc2ccc(S(=O)(=O)Nc3nc(C)cc(C)n3)cc2)cc1OC	1.27
Cc1ccc2c3c1C(=O)C(=O)N3C(C)(C)CC2C (stereo not given)	-0.697
Cn1c(CCNC(=O)C(C)(C)C)nc2ccccc21	-0.00183
COc1cnc(-c2ccccc2)nc1Oc1ccccc1C	-0.0402
Cc1ccc(Cn2ccc(NC(=O)CCSc3nc(-c4ccco4)cc(C(F)(F)F)n3)n2)cc1	0.106
CC(SCc1ccccc1)C(=O)N/N=C/c1cccs1 (stereo not given)	0.713
CCOC(=O)C(NC(=O)c1ccc(OC)cc1)(N1CCOCC1)C(F)(F)F (stereo not given)	0.152
CC(C)(C)c1ccc(/C=C2\SC(=O)N(CCNC(=O)c3cccc(S(=O)(=O)N4CCOCC4)c3)C2=O)cc1	-0.215
COc1cccc(C(=O)n2c(SC)nc3cc4c(cc32)OCCO4)c1	-0.629
O=C1CC(N2CCC(O)(c3ccc(Br)cc3)CC2)C(=O)N1c1ccc(Cl)cc1 (stereo not given)	-0.333
C=CCNc1sc(C(=O)c2ccccc2)c(N)c1C#N	-1.32
O=C(O)C1CCCCC1C(=O)Nc1cccc2ccccc12 (stereo not given)	-0.0468
O=C(Nc1ccccc1C(=O)NC(Cc1ccccc1)C(=O)NC1CCCCCC1)c1ccccc1 (stereo not given)	-0.114
COc1ccc(/C=N/Nc2nc(Nc3ccccc3)nc(N3CCCCC3)n2)cc1OC	-0.23
Cc1cccc(NS(=O)(=O)c2cc(C(=O)N3CCc4ccccc4C3)ccc2Cl)c1C	-0.467
CCOCc1nnc(NC(=O)c2ccco2)s1	0.371
N#Cc1cc(C#N)c(N2CCN(c3ccccn3)CC2)nc1N	-0.0444
O=C(NCc1ccc2c(c1)OCO2)c1cc(-c2ccccc2)on1	-0.221
Cc1ccc(/C=N/NC(=O)CSc2nc3nc(C)cc(C)n3n2)cc1	-0.108
COc1ccc(N(CC(=O)NC2CCCCC2)C(=O)CNC(=O)c2ccco2)cc1OC	-0.012
COCCNC(=O)CS(=O)Cc1nc(-c2ccc(Cl)cc2)oc1C (stereo not given)	0.00619
CCOCC(=O)Nc1nnc(Cc2ccc(OC)cc2)s1	-0.115

SMILES	z-score
COc1ccc(C(=O)CSc2nc3nc(C)cc(C)c3c(=O)[nH]2)cc1OC	-0.692
Cc1ccc(C)c(OCc2nnc(N)s2)c1	0.0977
Cc1cc(C)c(C2C(C#N)=C(N)Oc3n[nH]c(C)c32)cc1CN1CCCC1 (stereo not given)	0.255
Cc1[nH]c2ccccc2c1C(=O)CSc1ccccc1	-0.0521
COC(=O)c1ccc(N)cc1O	-0.204
CCOC(=O)CSc1nc(N)c(C(=O)Nc2ccc(N(C)C)cc2)s1	-1.4
O=Cc1cn(CC(=O)N2CCOCC2)c2ccccc12	-0.773
CCC(Sc1ncnc2c1nnn2-c1ccc(F)cc1)C(=O)OC (stereo not given)	-0.361
CC(C)n1nc(C(=O)Nc2ccccc2N2CCOCC2)c2ccccc2c1=O	-0.035
COc1cc(/C=N/NC(=O)CCc2n[nH]c(=O)[nH]c2=O)cc(OC)c1OC	-0.317
O=C(O)CCCN=CC1=C(O)C(C(=O)c2ccccc2)CCC1=O (stereo not given)	-0.148
CC(C)C(=O)Nc1cccc(NC(=O)c2cc3ccccc3o2)c1	active: 7.7
CCN(CC)C(=O)Oc1ccc2cc(Br)ccc2c1	0.935
O=C(COC(=O)COc1ccc(Cl)cc1Cl)Nc1cccnc1Cl	-0.365
CCSc1nnc(NC(=O)C2(C)Cc3ccccc3C(=O)O2)s1 (stereo not given)	-0.0977
CCCCCCOC(=O)/C=C/c1c(C)[nH]c(=O)[nH]c1=O	-0.139
O=C(COC(=O)c1cnccn1)c1ccc(Br)cc1	1.37
CC(NC(=O)OCc1ccccc1)C(=O)N1CC(O)CC1C(=O)O (stereo not given)	-0.00982
COc1ccccc1NC(=O)Nc1cc(NC(=O)Nc2ccccc2OC)c(C)nc1C	-0.415
C[N+](C)(C)CCCN1C(=O)CCCC1=O	-0.194
Cc1cccn2c(=O)c3cc(C#N)c(=NC(=O)c4cccnc4)n(CC4CCCO4)c3nc12 (stereo not given)	active: -4.61
COc1ccc(C2c3c(ccc4ccccc34)Oc3ncn4nc(CO/N=C/c5ccccc5)nc4c32)cc1 (stereo not given)	-0.12
Cn1c(NC(=O)c2ccccc2)c(-c2cccs2)c(=O)c2ccccc21	0.294
O=C(Nc1ccc(Oc2ccc3ccccc3c2)cc1)c1ccco1	0.388

SMILES	z-score
COc1ccc(C2(NC(C)=O)CCN(C(=O)CCC(=O)O)CC2)cc1	1.5
O=C(CCn1cnc2ccccc21)N/N=C/c1ccc(O)cc1	-0.0105
COc1ccc([N+](=O)[O-])cc1NC(=O)CC(c1ccccc1)c1ccccc1	-0.135
COc1ccc(OC)c(N2C(=O)CC(Cc3cc(C)cc(C)c3)C2=O)c1 (stereo not given)	-0.399
CCc1nnc(NC(=O)CSc2nnc3c(C)cc4c(C)ccc(C)c4n23)s1	-0.358
Cc1cc(C(=O)N/N=C/c2ccc(O)c([N+](=O)[O-])c2)n[nH]1	0.252
COCCNC(=O)c1cc2cc(Br)cc(OC)c2oc1=O	-0.19
CCOC(=O)CSc1nnc(CNC(=O)Cc2ccccc2)n1-c1ccccc1OC	0.235
CS(=O)(=O)N1CCC(C(=O)Nc2ccc3c(c2)OCCO3)CC1	0.0973
Cc1ccc(C(=O)Nc2ccon2)cc1S(=O)(=O)N1CCOCC1	-0.00769
CC(=O)Nc1ccc(NC(=O)/C(Cl)=C/c2ccccc2)cc1	-0.311
O=C(NNS(=O)(=O)c1ccc(CCCl)cc1)C(O)(c1ccccc1)c1ccccc1	0.0615
COC(=O)c1sc(N2C(=O)c3oc4ccccc4c(=O)c3C2c2cccs2)nc1C (stereo not given)	-0.0409
COc1ccc(S(=O)(=O)N2CCC(C(=O)NCc3ccco3)CC2)cc1	-0.307
O=C(O)CC12CSc3[nH]c(=O)sc3C1c1ccccc1OC2=O (stereo not given)	-0.235
C/C(=N\N1CCN(C2c3ccccc3-c3ccccc32)CC1)c1ccncc1	-0.0694
O=C(N/N=C/c1ccc(Sc2ccccn2)o1)c1cc2ccccc2cc1O	active: 6.43
Nc1ncnc(Sc2ccc(Cl)cc2)c1[N+](=O)[O-]	0.133
Cc1nnc(SCC(=O)Nc2nc3ccccc3s2)n(N)c1=O	0.179
COc1ccc(C(=O)OCC(=O)c2ccccc2)cc1S(=O)(=O)N1CCOCC1	-0.592
c1ccc(OCCn2cnc3ccccc32)cc1	-0.206
COc1ccc(CN(C)CC(=O)Nc2ccccc2C(F)(F)F)c(OC)c1	-0.0562
